Data on 44 compounds can be found in PMC4336329 (PLoS ONE, 2015).

Screen size: about 310,000 compounds; about 14,000 (4.5%) showed an effect of 50% or more. Effects have a minus sign here. Some of the results follow.
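Note: peak tail current of the secondary pulse compared with the same well before compound.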

Chain of human ether-à-go-go-related gene (hERG) potassium channel (Q12809 whole entry, looked up): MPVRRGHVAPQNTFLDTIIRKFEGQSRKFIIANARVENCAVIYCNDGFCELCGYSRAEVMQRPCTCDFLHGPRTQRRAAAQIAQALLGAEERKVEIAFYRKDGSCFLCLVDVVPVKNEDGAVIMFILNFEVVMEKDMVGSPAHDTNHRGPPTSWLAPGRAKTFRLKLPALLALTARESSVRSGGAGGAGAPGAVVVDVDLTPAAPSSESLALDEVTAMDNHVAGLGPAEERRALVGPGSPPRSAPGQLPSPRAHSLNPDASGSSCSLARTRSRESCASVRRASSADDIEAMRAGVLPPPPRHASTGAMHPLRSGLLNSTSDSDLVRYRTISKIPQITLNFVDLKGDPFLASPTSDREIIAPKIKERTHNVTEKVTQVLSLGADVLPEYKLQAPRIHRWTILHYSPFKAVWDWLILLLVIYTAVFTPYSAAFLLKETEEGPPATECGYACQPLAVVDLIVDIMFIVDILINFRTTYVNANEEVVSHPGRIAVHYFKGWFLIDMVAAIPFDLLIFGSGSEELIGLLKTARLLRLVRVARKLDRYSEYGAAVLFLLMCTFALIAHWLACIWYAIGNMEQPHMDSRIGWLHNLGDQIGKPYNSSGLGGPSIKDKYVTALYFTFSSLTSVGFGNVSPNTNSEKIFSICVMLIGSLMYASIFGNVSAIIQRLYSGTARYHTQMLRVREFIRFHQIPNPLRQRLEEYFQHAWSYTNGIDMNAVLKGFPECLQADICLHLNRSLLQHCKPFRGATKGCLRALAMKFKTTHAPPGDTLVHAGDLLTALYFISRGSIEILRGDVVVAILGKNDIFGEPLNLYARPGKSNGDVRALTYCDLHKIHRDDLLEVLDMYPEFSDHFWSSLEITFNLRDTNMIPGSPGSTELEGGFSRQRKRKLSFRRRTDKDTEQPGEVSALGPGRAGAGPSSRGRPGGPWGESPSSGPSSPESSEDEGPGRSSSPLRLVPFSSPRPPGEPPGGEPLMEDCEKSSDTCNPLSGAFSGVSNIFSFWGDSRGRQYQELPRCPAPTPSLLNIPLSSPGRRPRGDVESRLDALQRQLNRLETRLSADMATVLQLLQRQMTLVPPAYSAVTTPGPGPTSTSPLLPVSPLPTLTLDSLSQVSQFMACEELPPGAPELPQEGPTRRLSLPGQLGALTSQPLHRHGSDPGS

This assay concerns the target human ether-à-go-go-related gene (hERG) potassium channel (human, UniProt Q12809). Description: primary screen, population patch clamp on CHO cells stably expressing hERG.
On to `COC(=O)c1cc2nc(-c3ccc(OC)cc3)cc(C(F)(F)F)n2n1`, for which the “hERG current change (%, negative = inhibition) at 10uM” value came out at 10.5%. `c1ccc2c(c1)ncc1cccn12`: the “hERG current change (%, negative = inhibition) at 10uM” value was determined as 13%. As for `COc1cccc(NC(=O)c2nc3nc(C)cc(C(F)F)n3n2)c1`, the figure is 4.23%; as for `COc1cc(Br)c(C(C)NC(=O)c2cccc(Br)c2)cc1OC` (centres unmarked), -14.4%. `N#Cc1cc2c(nc1SCC(=O)N1CCCCC1)CCCCC2`: the “hERG current change (%, negative = inhibition) at 10uM” value was -20.1%. With `COc1ccc(Cl)cc1NC(=O)CN(C)C(=O)CCSc1ccc(C)cc1`, the “hERG current change (%, negative = inhibition) at 10uM” value was -5.05%. On to `CC(C)C(NC(=O)c1c(F)cccc1F)C(=O)NC1CC(C)(C)NC(C)(C)C1` (centres unmarked), for which the “hERG current change (%, negative = inhibition) at 10uM” value is reported as 16.4%.

Consider `CCOC(=O)Nc1nc(-c2ccccc2)c(C(=O)c2ccccc2)s1`, for which the “hERG current change (%, negative = inhibition) at 10uM” value is listed as 2.21%.

As for `C=CCNC(=O)CC(=O)N/N=C/c1cccc(Br)c1`, the “hERG current change (%, negative = inhibition) at 10uM” value is on record as 0.766%. Regarding `COC(=O)c1cc(OC)c(OC)cc1NC(=S)Nc1cccc(Cl)c1`, the “hERG current change (%, negative = inhibition) at 10uM” value worked out at 7.26%. As for `O=C(NS(=O)(=O)Oc1ccc(Cl)cc1)OC[C@@H]1CCCN2CCCC[C@H]12`, the figure is 28.2%. Turning to `C=CCn1c(SCCN2CCOCC2)nc2c1c(=O)[nH]c(=O)n2C`, the “hERG current change (%, negative = inhibition) at 10uM” value is recorded as 8.38%. Turning to `CCn1c(NCc2cccs2)nc2ccccc21`, the “hERG current change (%, negative = inhibition) at 10uM” value is on record as -12.2%. With `Cc1ccc(-c2cc(C(F)F)n3ncc(C(=O)Nc4ccc(S(=O)(=O)Nc5ccccc5C)cc4)c3n2)cc1` the figure was 7.58%. With `COc1ccc(-c2cc(C(=O)OCC(=O)NC3CC3)c3ccccc3n2)cc1` the figure was 0.242%; with `CCN(Cc1ccncc1)C(=O)CCc1nnc(CCC2CCCCC2)o1`, -24.9%.

Turning to `Cc1cc(/C=C2/NC(=O)NC2=O)c(C)n1-c1ccc(N2CCOCC2)cc1`, the “hERG current change (%, negative = inhibition) at 10uM” value amounted to 19.4%. As for `Cc1cc(C(=O)Nn2c(C3CCCCC3)nc3ccccc3c2=O)ccc1[N+](=O)[O-]`, the figure is 4.23%. As for `NC(=O)C1CCN(c2ccc(S(=O)(=O)N3CCCCC3)cn2)CC1`, the figure is 13.6%; as for `COc1ccccc1CCC(=O)Nc1ccc(OC)c(S(=O)(=O)N2CCOCC2)c1`, 3.09%; as for `O=C(c1cc2ccccc2oc1=O)N1CCN(c2ccc(N3CCOCC3)nn2)CC1`, 5.28%. With `Cl.O=C(CCN1CCCCC1)Nc1cccc(Br)c1`, the “hERG current change (%, negative = inhibition) at 10uM” value was -25.4%. With `Cc1nn(C)c(Oc2ccccc2)c1CCNS(=O)(=O)c1ccc(Cl)cc1` the figure was -30.3%. Turning to `CCn1cc(C(=O)O)c(=O)c2cnc(N3CCN(C(=S)Nc4ccccc4)CC3)nc21`, the “hERG current change (%, negative = inhibition) at 10uM” value turned out to be 2.24%. As for `COc1ccc(C2C=C(C)Nc3nc4ccccc4n32)cc1` (centres unmarked), the figure is -2.74%; as for `CCOc1ccc(NC(=O)c2cccs2)c([N+](=O)[O-])c1`, 2.08%; as for `Cn1cccc1CC(=O)N/N=C\c1cccs1`, 7.68%. With `Cc1cc(/C=N\NC(=O)CC(=O)NC2CCCCC2)c(C)n1-c1ccc(Cl)c(Cl)c1` the figure was 12.5%; with `CCOC(=O)[C@H]1[C@H]2COc3ccc(Br)cc3[C@@H]2N2C(=O)CN(Cc3ccc(OC)cc3)C(=O)[C@@]12C`, 12.1%. As for `CCCc1cc(=O)oc2cc(OCC(=O)N3C[C@H]4C[C@@H](C3)c3cccc(=O)n3C4)c(Cl)cc12`, the figure is -14.7%. As to `C=CCn1c(SCC(N)=O)nnc1-c1cccc(Br)c1`, the “hERG current change (%, negative = inhibition) at 10uM” value was -9.97%. As for `CCOC(=O)N1CCN(c2ccc(S(=O)(=O)N(Cc3ccccc3)Cc3ccccc3)cn2)CC1`, the figure is -4.41%; as for `CC(C)c1ccccc1NC(=O)c1ccc(CN(c2ccccc2)S(=O)(=O)c2ccccc2)cc1`, 21%; as for `O=C(c1ccc(CS(=O)Cc2ccc(Cl)cc2)o1)N1CCN(c2ccccc2)CC1` (centres unmarked), -51.8%. With `COc1cc(NC(=O)CSc2nc3c(c(=O)[nH]2)CCCC3)cc(OC)c1OC` the figure was 8.11%; with `CCOC(=O)C(CC)(CCC(=O)O)c1csc(N)n1` (centres unmarked), 16.7%; with `CC1C2C(C)N(C)C(=O)N(C)C2N(C)C(=O)N1C` (centres unmarked), 29.2%. As for `CN(CC(=O)Nc1ccc(Cl)cc1)CC(=O)Nc1ccc(C(N)=O)cc1`, the figure is 18.2%. For the compound `Cc1cccn2cc(-c3ccc(NC(=O)Cc4ccccc4)cc3)nc12`, the “hERG current change (%, negative = inhibition) at 10uM” value was 10.7%.

For `CC1CCCCN1CCNC(=O)C1CCCN(c2ncnc3c2nc2n3CCCCC2)C1` (centres unmarked), the “hERG current change (%, negative = inhibition) at 10uM” value is listed as -14.3%. As for `Cn1c(NC(=O)c2ccccc2NC(=O)C(C)(C)C)nc2ccccc21`, the figure is -1.93%; as for `O=C(Nc1nc2ccc(Cl)cc2s1)c1ccc(Br)o1`, 4.25%; as for `COc1cc([C@@H]2CC=C(C(=O)O)CN2S(=O)(=O)c2ccc(C)cc2)cc(OC)c1OC`, 17.8%. Consider `CC1Nc2ncnc(N3CCN(c4ccccn4)CC3)c2N(Cc2ccccc2)C1=O.O=C(O)C(F)(F)F` (centres unmarked), for which the “hERG current change (%, negative = inhibition) at 10uM” value was -19.8%.
